First the molecules themselves.
B1: LINE1-mini (parent)
chain: GGCAGAGCUCAACACAGCGUGGCAAAGUGGCUGUGGCUAGACUGCC

We go through 167 variants from the RNAGym collection of RNA variant scans (doi:10.7554/elife.90254).

Read counts are not given, so values of variants with three or more changes are uncertain.

The variants in the data set derive from B1. As to the kind of experiment: self-cleavage, relative activity (ratio to wild type); higher = more cleavage; in vitro, sequencing; the parent is a self-cleaving ribozyme.
With C15A A39U A41U, the self-cleavage turned out to be 0.05.

For C15A G17A G29A G40U, the self-cleavage came out at 0.02.

In the case of C15A C37A U38A, the self-cleavage worked out at 0.12.

Turning to A14U A24U A39G, the self-cleavage came out at 0.09.

Regarding A14U A26C U28G C46A, the self-cleavage worked out at 0.04.

As to A14U G29A U34G, the self-cleavage turned out to be 1.32.

In the case of C15G A16C C23A, the self-cleavage stood at 0.02.

C15A A25C G35U: the self-cleavage came to 0.03.

A14U G21U G35U: the self-cleavage was 0.

Regarding A14U U20C C23U U34A C46U, the self-cleavage came out at 0.26.

As for C15A G22C C31A C42U, the self-cleavage came out at 0.01.

For the variant C15A C18A A24C A41C, the self-cleavage is 0.

In the case of C15A G17A G21U A25G G40U G44A, the self-cleavage worked out at 0.14.

With C15A A24U A26C C46G, the self-cleavage was determined as 0.04.

Turning to C15A G19A A39G, the self-cleavage was 0.05.

For the variant C15A C23A G35A A39C, the self-cleavage stood at 0.05.

For the variant A14U U20C G29U G35C C45U, the self-cleavage turned out to be 0.05.

Turning to C15A G33U G40C, the self-cleavage was 0.08.

Regarding A14U A26C A39G, the self-cleavage worked out at 0.05.

On to A14U G35C U43A C46U, for which the self-cleavage amounted to 0.04.

For the variant C15A G19A G36C, the self-cleavage was determined as 0.05.

Regarding C15A G19U U20C, the self-cleavage turned out to be 0.09.

For the variant A14U G17A G21C G30U, the self-cleavage came to 0.09.

Regarding C15A A24U G36U C46U, the self-cleavage was 0.03.

Regarding C15A A16G U32G C42A, the self-cleavage was determined as 0.12.

As to A14U G35U U38C, the self-cleavage worked out at 0.17.

For A14U C37U U43C, the self-cleavage was determined as 0.05.

Take C15A G27C C46U: the self-cleavage is 0.07.

A14U G17C C45A: the self-cleavage turned out to be 0.

As to C15A G17U C18G G29A, the self-cleavage was 0.04.

In the case of C15A A16C G22C A26C A39C, the self-cleavage came to 0.02.

With C15G A25G U32G C46U, the self-cleavage was 0.

As for C15A A25C G29C U43A, the self-cleavage was 0.02.

For the variant A14U C18U C37G G44A, the self-cleavage came to 0.22.

On to C15A C23G U38C, for which the self-cleavage is 0.02.

On to C15A C37G A39C G40U, for which the self-cleavage came out at 0.03.

With C15A G21U G27C, the self-cleavage is 0.2.

For C15A G33C U34G C45G, the self-cleavage turned out to be 0.12.

Consider C15A G17C G29U C46G, for which the self-cleavage worked out at 0.01.

Turning to C15A A16C G17U A25C U32C G35A U43G G44A C46U, the self-cleavage was determined as 0.01.

A14U C31U G33A: the self-cleavage turned out to be 0.01.

For the variant A14U U34G G36A C42U, the self-cleavage was 0.04.

For the variant C15A G19A G35A, the self-cleavage came out at 0.21.

Consider A14U C15U G19A U28G G33C, for which the self-cleavage is 0.01.

A14U C23G G29U: the self-cleavage worked out at 0.22.

Take A14U C15A G21C: the self-cleavage was determined as 0.13.

Consider C15A G30A G36C C42A, for which the self-cleavage amounted to 0.03.

As for C15A C37U C46A, the self-cleavage was found to be 0.05.

For the variant A14U G17U C45G, the self-cleavage was found to be 0.04.

With A14U C31U C46A, the self-cleavage was 0.01.

As for C15A C18A U43C, the self-cleavage stood at 0.01.

In the case of C15A G40U C42U, the self-cleavage worked out at 0.05.

Take C15A U32C C37U: the self-cleavage turned out to be 0.04.

With A14U G21A U43G, the self-cleavage worked out at 0.

For the variant A14U C15A C23A G27A, the self-cleavage turned out to be 0.21.

With C15A C31A G35C, the self-cleavage is 0.07.

On to C15A G21A C45U, for which the self-cleavage amounted to 0.12.

Regarding C15A G30U C31A G33C, the self-cleavage came out at 0.

As for C15A G22C U32A C42A, the self-cleavage amounted to 0.02.

Take A14U U28A U32G: the self-cleavage worked out at 0.06.

Consider C15A G19C U32A, for which the self-cleavage amounted to 0.03.

On to C15G A24C C46U, for which the self-cleavage was 0.02.

On to A14U C23A G27A, for which the self-cleavage worked out at 2.92.

C15A G21C G22A: the self-cleavage was 0.01.

As to A14U G19U G35C U38C, the self-cleavage is 0.07.

For the variant A14U A25C U28G, the self-cleavage came to 0.46.

On to A14U U20G C23G, for which the self-cleavage was 0.14.

On to A14U G17C G29A U38C, for which the self-cleavage turned out to be 0.02.

Consider C15A C37G G40A C42U, for which the self-cleavage is 0.04.

For C15A G21A G22A C31A G36A, the self-cleavage was 0.03.

For the variant A14U A26U G35C G40U, the self-cleavage is 0.1.

C15A G30U A41U C42A C45G: the self-cleavage is 0.01.

On to C15A C31A U43A, for which the self-cleavage stood at 0.03.

For C15A A26G G29U U34A G40U, the self-cleavage was found to be 0.02.

As to C15A A24U G29C U38A U43A, the self-cleavage came out at 0.03.

Turning to A14U U20G C37U C45U, the self-cleavage turned out to be 0.04.

In the case of C15A U34G G44A, the self-cleavage was 0.04.

As to C15A C18G G30U G33U, the self-cleavage turned out to be 0.69.

For A14U A25U C42G C45U, the self-cleavage came to 0.01.

On to A14U G21U U28A C31U U43A C46U, for which the self-cleavage amounted to 0.02.

With A14U G21A C37G U38G, the self-cleavage turned out to be 0.02.

Consider A14U G27A C42A, for which the self-cleavage was 0.03.

For the variant C15A U20A C37U C45U, the self-cleavage is 0.02.

For the variant A14U G19A A25U G30A, the self-cleavage came out at 0.85.

As for C15A U28G G29A, the self-cleavage was found to be 0.05.

For the variant C15A G44A C45U, the self-cleavage amounted to 0.03.

For the variant C15A G22U C23A U38A, the self-cleavage is 0.05.

Regarding A14U C15A G19U G27C G36A, the self-cleavage turned out to be 0.01.

With C15A A24G G30C G33C, the self-cleavage was found to be 0.08.

As to A14U G30U G36C U38G C45A, the self-cleavage turned out to be 0.03.

In the case of C15A A24C U32G C46U, the self-cleavage amounted to 0.01.

As for A14U A26G U34A A41G, the self-cleavage stood at 0.1.

As for C15A G19A U34G, the self-cleavage came out at 0.06.

Turning to A14U U32A G40C C46A, the self-cleavage came out at 0.02.

As to C15A C31U U43G, the self-cleavage came to 0.01.

Take C15A C23G C42G: the self-cleavage stood at 0.01.

For C15A G21A G30U A39C, the self-cleavage was found to be 0.03.

For A14U A26G G30U C31A, the self-cleavage was 0.03.

For C15A G17U G29U U38C, the self-cleavage is 0.27.

Turning to A14U C18G C37A U38A C42A G44U C45G, the self-cleavage was 0.02.

With A14U G19A U20C A24G A26C G44A, the self-cleavage was 0.1.

As for A14U C31A U38G A41U C46A, the self-cleavage stood at 0.05.

Consider C15A G29C U32A G44A, for which the self-cleavage turned out to be 0.06.

Turning to C15A A26U C45G, the self-cleavage was found to be 0.04.

On to A14U U32C G35C G40U A41U, for which the self-cleavage amounted to 0.11.

Consider C15A A24U A41G, for which the self-cleavage amounted to 0.05.

Consider A14U G21U G30A C31G G33A, for which the self-cleavage stood at 0.04.

C15A U20A G22U U43C: the self-cleavage was 0.36.

For C15A A16C C23G, the self-cleavage came to 0.03.

With A14U U32C G40U, the self-cleavage was found to be 0.07.

Turning to A14U C31U G40U, the self-cleavage came to 0.03.

For the variant A14U G33C C42U G44A, the self-cleavage worked out at 0.02.

On to C15A A41U C45U, for which the self-cleavage was 0.1.

Regarding A14U A41U G44A, the self-cleavage amounted to 0.05.

Consider C15A U28G C45G, for which the self-cleavage was 0.02.

Regarding A14U G29U G40U A41C, the self-cleavage turned out to be 0.15.

For A14U U34A G35U, the self-cleavage was found to be 0.1.

In the case of A14U G21C G27A, the self-cleavage worked out at 0.56.

Take C15A C23G U32A C46G: the self-cleavage turned out to be 0.03.

On to C15G A25C G27U G33A U34A U38C A41G U43A, for which the self-cleavage turned out to be 0.

Consider A14U C15U A16C A41G, for which the self-cleavage came to 0.35.

Take A14U A24U C42U: the self-cleavage was found to be 0.06.

As for C15G A26C C37A, the self-cleavage was found to be 0.01.

C15A G21U G29C U32C: the self-cleavage came out at 0.09.

With C15A G17C U32C G33A C45U, the self-cleavage was 0.02.

Consider A14U G21C G35C G40A, for which the self-cleavage was found to be 0.03.

With C15A G35A G40A, the self-cleavage was 0.02.

In the case of A14U G17U C18G, the self-cleavage is 0.05.

In the case of A14U U20A A25G G29A, the self-cleavage amounted to 0.15.

Turning to C15A G22U U28G A39C, the self-cleavage is 0.03.

Regarding C15A G21U G40A, the self-cleavage amounted to 0.01.

In the case of C15A C23A U32A G33A G40A, the self-cleavage was found to be 0.06.

Consider C15A G17A U43A C46A, for which the self-cleavage turned out to be 0.02.

For the variant C15A G22U C31U, the self-cleavage turned out to be 0.03.

On to C15A G27A G44A C45U, for which the self-cleavage was found to be 0.04.

With C15A G17U C23A U34G, the self-cleavage is 0.03.

C15A A16U G44C: the self-cleavage worked out at 0.04.

A14U G19U G27U: the self-cleavage turned out to be 0.09.

As for C15A A26U G27C, the self-cleavage worked out at 0.05.

For A14U C23A G29A C31G U32G A41G G44A, the self-cleavage is 0.01.

For the variant C15A G19A G21C C31U G40C, the self-cleavage was found to be 0.02.

On to A14U A24U A26G, for which the self-cleavage stood at 0.55.

A14U U28G G30A G33U G35U C42G: the self-cleavage was determined as 0.12.

With A14U G17U C42U, the self-cleavage amounted to 0.02.

As to A14U G17U C42G, the self-cleavage was found to be 0.09.

Regarding C15G A25G C37A G40A, the self-cleavage was 0.02.

On to A14U U34G C37G G40C, for which the self-cleavage turned out to be 0.02.

For the variant A14U G30A A39G, the self-cleavage was determined as 0.11.

With C15A G17A G22U C42U, the self-cleavage was found to be 0.02.

Consider C15A G21C U34G, for which the self-cleavage is 0.

As to C15A G17A G36A A41C, the self-cleavage is 0.05.

For the variant A14U C15A A16C A25G, the self-cleavage amounted to 0.06.

Regarding C15A G21A A24G U34A A41U, the self-cleavage came out at 0.12.

As to C15A G17A C45U, the self-cleavage was determined as 0.02.

Turning to A14U G19U G36C A41C, the self-cleavage is 0.1.

Take A14U U34A C45U: the self-cleavage stood at 0.8.

In the case of A14U C31A A39G, the self-cleavage was 0.02.

Consider A14U G17A G21A, for which the self-cleavage came out at 0.06.

As for C15A G22U C42A, the self-cleavage was found to be 0.14.

As for C15G A24U G29A C31A C37U G40U, the self-cleavage came out at 0.01.

As for C15A G19C G36A C46A, the self-cleavage turned out to be 0.07.

For C15G A26C C31A U34A G36U, the self-cleavage was determined as 0.02.

Take A14U U28A G36C U38C: the self-cleavage stood at 0.01.

For A14U G21A A25U U28A U32A C37U, the self-cleavage was 0.02.

For C15A G17C A25C G36U, the self-cleavage turned out to be 0.06.

On to C15A C18A A24C U38G, for which the self-cleavage came to 0.

Regarding A14U U20C G40A, the self-cleavage was 0.01.
